Source: PubChem BioAssay AID686970 (National Center for Advancing Translational Sciences (NCATS), 2013)
Screen size: about 360,000 compounds; about 6,000 (1.7%) were called active. This list was built around the results that the source calls inconclusive (neither active nor inactive); the mix of calls is not that of the screen. Calls follow the shape of the dose curve; as a rule, active = well fitted cell-killing curve with a large enough effect; inconclusive = small, poorly fitted or top-dose-only effect, or effect the other way; inactive = flat fitted curve, though single readings scatter. No potency is given beside an inconclusive call; the fits are too rough.

experiment: qHTS for induction of synthetic lethality in tumor cells producing 2HG: qHTS for the HT-1080-NT fibrosarcoma cell line; settings: HT-1080-NT fibrosarcoma viability, CellTiter-Glo ATP luminescence, 48 h; activity, negative = less viability: at 46.1 µM (top of the series) unless noted;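 also: NT is the 2HG producing partner of a matched IDH1 knockdown line; nearly all actives have a fitted effect of over 55% in size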;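 as to activity, negative = less viability: 0% = DMSO-treated cells and -100% = media-only wells without cells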
Procedure, shortened: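 Viability of the 2HG-overproducing fibrosarcoma line after 48 hours of compound exposure at 37 degrees C was determined by luminescence with CellTiter-Glo, and concentration-effect curves were then fitted and categorized.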
Potency is read from the fitted curve at half-maximal effect; tags tell the direction and shape of the fitted curve.

Row | Compound | activity, negative = less viability | Potency
1 | Cc1cccc(CSc2ccc3nnc(-c4ccccn4)n3n2)c1 | inactive: -14.4% | –
2 | O=P(CCc1ccccc1)(c1ccccc1)c1ccccc1 | inactive: -16.4% | –
3 | CCCCN1C(=N)N([C@@H](C)CN2CCC[C@H]2CN2C(N)=NC[C@@H]2Cc2ccccc2)C[C@H]1[C@H](C)CC | – | inconclusive [rising, single point]
4 | NC(=O)c1nsc(C(=O)N(c2ccccc2)C(C(=O)NCc2ccc(F)cc2)c2ccc(O)cc2)c1N (stereo not given) | inactive: -22.8% | –
5 | CC1CCCCN1CCCNC(=O)c1ccc(Br)cc1 (stereo not given) | inactive: 0.005% | –
6 | CCOC(=O)c1c(-c2ccc(-c3ccccc3)cc2)csc1NC(=O)CCN1CCOCC1 | – | inconclusive [cytotoxic, single point]
7 | O=[N+]([O-])c1ccc(NCc2ccc3c(c2)OCO3)cc1 | inactive: 0% | –
8 | Cc1cccc(Nc2nnc(SCC(=O)Nc3cccc(S(=O)(=O)N4CCCCC4)c3)s2)c1 | inactive: -15.4% | –
9 | O=C(N/N=C/c1ccc(N2CCOCC2)cc1)c1ccncc1 | inactive: 0.88% | –
10 | CCCc1nnc(NC(=O)COc2ccc3c(c2)OCO3)s1 | – | inconclusive [cytotoxic, full curve]
11 | COc1cc(N/N=C(\C)c2ccc(O)c(C)c2)nc(-c2ccccc2)n1 | – | active: 20.6 µM
12 | COc1cc(OC)cc(-c2sc3ccc(OC)cc3c2C#CC2(N)CCCCC2)c1 | – | inconclusive [cytotoxic, single point]
13 | CC(C)CC(NC(=O)OCc1ccccc1)C(=O)NC(Cc1ccccc1)C(=O)CCl (stereo not given) | – | inconclusive [cytotoxic, single point]
14 | O=C1CN(C(=O)c2ccc(Br)o2)C(c2ccc(F)cc2)c2cc(Cl)ccc2N1 (stereo not given) | – | inconclusive [cytotoxic, single point]
15 | O=C(c1ncc[nH]1)c1cccs1 | – | inconclusive [rising, single point]
16 | C#CCOc1nc(Nc2cccc([N+](=O)[O-])c2)nc(OCC#C)n1 | – | inconclusive [cytotoxic, partial curve]
17 | Cn1c(=O)c2cc(NC(=O)CC(C)(C)C)ccc2n1-c1ccccc1F | – | inconclusive [rising, full curve]
18 | COc1ccc2c(c1)OC[C@H]1[C@H]2N2C(=O)c3cc(C)ccc3NC(=O)[C@@]2(C)[C@H]1c1ccccc1 | – | inconclusive [cytotoxic, single point]
19 | Cc1ccccc1-c1cnc(C(O)c2ccc(F)cc2C)[nH]1 (stereo not given) | inactive: -0.979% | –
20 | CCOC(=O)C1=C(C)NC(=S)N(C(C)=O)C1c1ccc(OC)c(OC)c1 (stereo not given) | – | inconclusive [cytotoxic, single point]
21 | CCc1ccc2[nH]c3nc(N/N=C/c4cccc(O)c4)nnc3c2c1 | – | inconclusive [cytotoxic, partial curve]
22 | COc1ccc(Nc2nc(N)nc(CN3CCc4ccccc4C3)n2)cc1 | – | inconclusive [cytotoxic, single point]
23 | Nc1ccccc1SCC(=O)Nc1cccc2ccccc12 | inconclusive: -30.5% [cytotoxic] | –
24 | Cc1ccc(NC(=O)COC(=O)C2(c3ccc(Cl)cc3)CCCC2)cc1 | – | inconclusive [cytotoxic, single point]
25 | Cc1cccc(NC(=S)NNc2cccc(Cl)c2)c1 | – | active: 23.1 µM

Row | Compound | activity, negative = less viability | Potency
26 | COc1ccc(CCNC(=O)C2CCC(C(C)(C)C)CC2)cc1OC (stereo not given) | inactive: 4.11% | –
27 | Cc1ccc(OCCC(=O)OCC(=O)Nc2cc(S(=O)(=O)N(C)C)ccc2C)cc1 | inconclusive: -22.5% [cytotoxic] | –
28 | C[C@@]12C(=O)Nc3ccc(F)cc3C(=O)N1[C@H]1c3cc(Br)ccc3OC[C@@H]1[C@@H]2c1ccccc1 | – | inconclusive [cytotoxic, partial curve, poor fit]
29 | COc1ccc(C(=O)OCC(=O)Nc2nc3c(F)c(F)c(F)cc3s2)cc1OC | – | inconclusive [rising, partial curve]
30 | CCOC(=O)c1ccc(NC(=O)Cn2nnc(-c3ccccc3C)n2)cc1 | inactive: -21.1% | –
31 | O=C(CN1CCCCCC1)Nc1ccccc1F | inactive: 17.7% | –
32 | CC1(C(=O)Nc2ccc3c(c2)OCCO3)CCN1C(=O)Cc1cc(F)ccc1F (stereo not given) | inactive: 13.2% | –
33 | CN(CC(=O)Nc1ccc(Cl)c(Cl)c1)C(=O)C1CCC1 | inactive: -0.166% | –
34 | CCCCC(CC)CN=C(N)NC(N)=NCCCCCCN=C(N)NC(N)=NCC(CC)CCCC (stereo not given) | – | active: 7.31 µM
35 | COc1ccc(/C=C/C(=O)NCC(=O)N/N=C/c2cc(Br)ccc2OCc2ccccc2)cc1 | – | inconclusive [cytotoxic, single point]
36 | CCOCCCN(C)C1CCN(C(=O)c2oc3ccccc3c2NC(=O)COc2cccc(C)c2)CC1 | – | inconclusive [cytotoxic, single point]
37 | COc1ccc(C(=O)N2CCN(c3nc4ccccc4o3)CC2)cc1OC | – | inconclusive [cytotoxic, single point]
38 | Cc1ccc(NC(=O)c2cc(S(=O)(=O)N3CCOCC3)cn2C)cc1F | inactive: 29.4% | –
39 | CN(C)CCn1c(=O)n(Cc2ccccc2)c(=O)c2c3c(sc21)CCCCC3 | – | inconclusive [cytotoxic, single point]
40 | CCOc1cnn(-c2ccccc2)c(=O)c1Cl | – | inconclusive [cytotoxic, single point]
41 | COc1cc(CNCCc2c[nH]c3ccccc23)cc(Cl)c1OCC(N)=O | inactive: -21% | –
42 | CC(=O)Nc1ccc(N2CCCC(C)C2)c([N+](=O)[O-])c1 (stereo not given) | – | inconclusive [rising, partial curve]
43 | Cc1cccc(C)c1NC(=O)C(c1ccccc1)N(C)CCc1ccccc1 (stereo not given) | – | inconclusive [cytotoxic, single point]
44 | Cc1ccc2nc(C3CCCCC3)c(Cc3ccccc3C(F)(F)F)n2c1 | – | inconclusive [cytotoxic, single point]
45 | NS(=O)(=O)c1ccc(NCc2c(F)cccc2Cl)cc1 | inactive: 1.3% | –
46 | Cc1cccc(OCCN2C(=O)C(=O)c3cc(C)ccc32)c1 | – | active: 2.91 µM
47 | CC(C)Oc1ccc(CN2CCC2(C)C(=O)NCc2cccc3ccccc23)cc1 (stereo not given) | – | active: 18.4 µM
48 | Cc1ccc2c(c1)C(=O)C(=O)N2Cc1ccc(C(F)(F)F)cc1 | inactive: -4.72% | –
49 | COc1ccccc1/C=C\C(=O)NCC(=O)N/N=C/c1ccc(O)cc1O | – | inconclusive [cytotoxic, partial curve]
50 | CCN(CC)C(=O)Cn1cc(S(=O)(=O)CC(=O)Nc2cc(OC)ccc2OC)c2ccccc21 | inactive: -6.15% | –

Row | Compound | activity, negative = less viability | Potency
51 | CC(C)c1ccc(OCc2cccc(C(=O)N/N=C/c3cccnc3)c2)cc1 | – | inconclusive [cytotoxic, single point]
52 | C#CCNC(=O)C[C@@H]1C[C@@]2(C(=O)OC)CC(C)(C)CC=C2N(Cc2ccccc2)C1=O | inactive: 7.13% | –
53 | O=S(=O)(Nc1ccc(NS(=O)(=O)c2ccccc2)cc1)c1ccccc1 | inactive: -5.91% | –
54 | Cc1ccc(NC(=S)N/N=C2\CCCCC2C)cc1 (stereo not given) | – | inconclusive [cytotoxic, single point]
55 | COC(=O)c1ccc(-n2c(C)cc(C(=O)CCl)c2C)cc1 | – | inconclusive [cytotoxic, single point]
56 | CCOc1ccc(Cc2noc3c2C(=O)CC(C)(C)C3)cc1OCC | inactive: -13.4% | –
57 | Cc1ccc2nc(NCCc3ccccc3)c3nncn3c2c1 | inactive: 2.38% | –
58 | Cc1ccc2nc(N(CCCN(C)C)C(=O)c3cc(-c4cccs4)nc4ccccc34)sc2c1 | – | inconclusive [cytotoxic, single point]
59 | COC(=O)/C(=N/Nc1ccccc1OC)N1CCCc2ccccc21 | inactive: -28.4% | –
60 | Cc1cc(=O)oc2cc(OCC3CC(c4ccc(Br)cc4)=NO3)ccc12 (stereo not given) | inactive: 21.9% | –
61 | COc1ccccc1Oc1coc2c(CN(C)C)c(O)ccc2c1=O | – | inconclusive [rising, full curve]
62 | COc1ccc([C@H]2C[C@@H](n3cc(COC(=O)c4ccccc4)nn3)[C@H](O)CN2C(=O)c2cccs2)cc1 | inactive: -16.2% | –
63 | C=CCc1cc(OC)ccc1OCCOCCN1CCc2ccccc2C1 | – | inconclusive [cytotoxic, partial curve]
64 | Cc1cc(C)c(C)c(S(=O)(=O)N2CCN(c3ccc(O)cc3)CC2)c1C | – | inconclusive [cytotoxic, partial curve]
65 | COc1ccc(Nc2nc(NC(C)(C)C)nc(N3CCCC3)n2)c(OC)c1 | – | inconclusive [cytotoxic, single point]
66 | NC(=O)CC(NC(=O)Cc1ccc(Br)cc1)c1ccc(N2CCN(c3ccccc3)CC2)c([N+](=O)[O-])c1 (stereo not given) | inactive: -28.6% | –
67 | O=C1CC2c3ccccc3CCN2C(=O)CN1Cc1ccccc1 (stereo not given) | – | inconclusive [rising, single point]
68 | COC(=O)/C=C1\N/C(=N\c2nc(C)cc(C)n2)N(c2ccc(C)c(C)c2)C1=O | inactive: 1.55% | –
69 | COc1ccc(C(=O)Cn2c(C)nc([N+](=O)[O-])c2Br)cc1 | – | inconclusive [cytotoxic, partial curve]
70 | COC(=O)C1CC2=C(CCCC2=O)N(Cc2ccccc2)C1=O (stereo not given) | inactive: 1.24% | –
71 | Cc1ccc(C(=O)COC(=O)c2cccc(NC(=O)c3ccc([N+](=O)[O-])cc3[N+](=O)[O-])c2)cc1 | inconclusive: -30.9% [cytotoxic] | –
72 | COC(=O)/C(C#N)=C/c1ccc(C)o1 | inconclusive: 30.6% | –
73 | CCOC(=O)c1ccc(NC(=O)COc2ccccc2CNC2CCCC2)cc1 | – | active: 23.1 µM
74 | COCCCNC(=O)c1cc2cc(Br)ccc2oc1=O | inconclusive: 31.1% | –
75 | O=C(NCc1ccc2c(c1)OCO2)c1ccc(-c2ccc(Cl)cc2)o1 | – | inconclusive [cytotoxic, single point]
